The list shows a part of the results. At the low end of the ranking the order means little.

This experiment concerns the target SIX1 homeodomain (reference allele) (UniProt Q15475). Kind of experiment: universal protein binding microarray. To be noted: Universal all-10-mer PBM (8x60K, AMADID 030236), 300 nM GST-tagged protein, Alexa Fluor 488 anti-GST; buffer, salt, pH and temperature not stated; high values mean tight binding; most listed sequences are background and not binding sites; double strand, one strand shown.
As for GTGTCACA, the binding signal came out at 0.375 E-score.
Take CTATTTCC: the binding signal is -0.0841 E-score.
Consider AAGACACA, for which the binding signal is -0.246 E-score.
For GGGTGCCA the value was 0.0936 E-score; for CGCCCTTA, -0.27 E-score; for ATCATATA, 0.271 E-score.
Consider CAAATCGG, for which the binding signal turned out to be 0.053 E-score.
AATGAACT: the binding signal is -0.242 E-score.
For CGGCCCCC, the binding signal was -0.258 E-score.
Turning to CGTGCATC, the binding signal turned out to be 0.0528 E-score.
As to CTTAGGAA, the binding signal was 0.00927 E-score.
The result for AGGCTCAC reads 0.00999 E-score; that for GAAGTCTC, -0.174 E-score.
For GGTAGTGA the value was 0.0515 E-score; for ATGACGGC, -0.095 E-score; for ACCGGTGG, -0.0848 E-score.
Consider AGAATTGC, for which the binding signal was -0.186 E-score.
For the sequence ATCCGACG, the binding signal was 0.241 E-score.
Consider GATAGGGC, for which the binding signal came to 0.285 E-score.
In the case of CGGCTATA, the binding signal was determined as 0.00564 E-score.
For CCCGCAAA, the binding signal is -0.115 E-score.
The result for CCATATGG reads 0.131 E-score; that for ATGTGCGA, -0.1 E-score.
The result for GCCTCCGC reads -0.0793 E-score; that for TATCGATA, 0.342 E-score.
On to AGGCAACT, for which the binding signal is -0.155 E-score.
In the case of GGAAGGAA, the binding signal was -0.088 E-score.
Take ACCAGGAT: the binding signal stood at 0.345 E-score.
For AGCTAGCA the value was -0.0165 E-score; for ACAGTCCG, -0.114 E-score; for CTAGTACA, 0.0582 E-score.
For the sequence GACACGGC, the binding signal was 0.0812 E-score.
TATTTTGA: the binding signal is -0.141 E-score.
The result for CACTCACC reads -0.031 E-score; that for AGCAAGGG, 0.0682 E-score.
Turning to CGGGTTCA, the binding signal stood at 0.149 E-score.
The result for ATCGGACA reads 0.237 E-score; that for GACGTAAA, -0.162 E-score.
Regarding ATCCTACA, the binding signal was 0.288 E-score.
As for ACGGAACC, the binding signal was -0.192 E-score.
The result for AATGGATG reads -0.134 E-score; that for AAGCTGTA, 0.0658 E-score.
As for CGCTCTGA, the binding signal is -0.122 E-score.
As to GAGACATA, the binding signal came out at 0.132 E-score.
As to CATCACAA, the binding signal came out at 0.0587 E-score.
For CGCATCGA, the binding signal was 0.208 E-score.
As for CTCAGACC, the binding signal is -0.157 E-score.
As to AGGTGTGA, the binding signal amounted to 0.204 E-score.
Consider TACAGGGA, for which the binding signal is 0.00799 E-score.
CAACGTCA: the binding signal was -0.24 E-score.
As for ATCGTGGC, the binding signal is 0.076 E-score.
Turning to GATTTACC, the binding signal was -0.0612 E-score.
For ATGTGAGC, the binding signal is -0.00751 E-score.
As for CTACACGC, the binding signal turned out to be 0.0747 E-score.
As for CGTAGTCC, the binding signal is -0.204 E-score.
The result for ATCTATCG reads 0.23 E-score.
As to GGATCCAA, the binding signal is 0.41 E-score.
The result for ACGCATCT reads 0.169 E-score.
For AGCCACCG the value was -0.0209 E-score; for CTATCACA, 0.311 E-score.
The result for GGCCGCTA reads -0.127 E-score; that for ACATCAGG, -0.113 E-score; that for ATCAAACC, 0.261 E-score.
For the sequence AATACAAG, the binding signal came out at 0.0905 E-score.
On to CACTAGAA, for which the binding signal is -0.128 E-score.
For GTCCTTGA the value was -0.128 E-score.
As to CAGCTAGA, the binding signal was -0.124 E-score.
For ATGAGAAG the value was 0.176 E-score; for AAGCTTCA, -0.252 E-score; for GAAGGCCA, -0.274 E-score.
For the sequence CGCATCTC, the binding signal was determined as 0.154 E-score.
As for GGTGAAAA, the binding signal is -0.151 E-score.
The result for TCCTTCCA reads -0.00863 E-score; that for CACCGAAA, 0.0578 E-score.
Take CCCTGAGG: the binding signal is -0.084 E-score.
For TCACGTCA the value was 0.0163 E-score; for GTCCTCAA, -0.332 E-score.
The result for ACAAGATC reads 0.207 E-score; that for CTCCAACC, -0.0768 E-score.
For the sequence AGGGCAAC, the binding signal was -0.121 E-score.
Turning to CAGCAATG, the binding signal was -0.226 E-score.
For the sequence ATCCTATG, the binding signal worked out at 0.152 E-score.
Regarding GAGACGGC, the binding signal stood at 0.0871 E-score.
CAGTTATA: the binding signal was 0.0531 E-score.
The result for AGGCACAG reads -0.152 E-score; that for CCATCCTC, 0.053 E-score.
For GTGTGGCA the value was -0.115 E-score.
On to ATAAAGCA, for which the binding signal is -0.063 E-score.
The result for CTGTTTAC reads -0.263 E-score; that for AGACGCGG, 0.0324 E-score; that for TATTAGCA, 0.145 E-score.
Take AGTGTTAG: the binding signal was found to be 0.0653 E-score.
For AAAATAAG the value was -0.0846 E-score.
For the sequence AGTGCTTA, the binding signal was -0.261 E-score.
On to AAAAACTT, for which the binding signal was -0.341 E-score.
For ATACGGGC the value was 0.278 E-score; for ATCCCCGG, 0.307 E-score; for ATCGGAAT, 0.172 E-score.
For ATGTTTCA, the binding signal was -0.0604 E-score.
On to AATCATTC, for which the binding signal is -0.0896 E-score.
The result for AGCTGTGA reads 0.00675 E-score; that for AGTATGGC, -0.0287 E-score.
The result for CTCGACTC reads -0.0806 E-score.
The result for ATAGGATA reads 0.415 E-score; that for AAAACTAG, -0.0426 E-score; that for ACCATAGG, 0.0361 E-score.
TTCCGAAA: the binding signal was -0.162 E-score.
The result for CACGTGAG reads -0.163 E-score; that for CTGCCGGA, -0.0267 E-score.
For ATTTCAAA the value was 0.000155 E-score; for TACTTCCA, 0.0222 E-score.
For AAATGTTC the value was -0.17 E-score.
Regarding ACTCTAGC, the binding signal is -0.027 E-score.
In the case of CTTACTAC, the binding signal is -0.0528 E-score.
For ATGTTTAC the value was -0.0948 E-score.
The result for ATCCATAA reads 0.254 E-score; that for TGGTTGAA, -0.147 E-score.
The result for CTGTCCTC reads 0.0352 E-score; that for CTTGGTAA, -0.0803 E-score.
As for AACCTCGC, the binding signal is -0.0568 E-score.
For GGGTATTA the value was 0.393 E-score; for CGGGTGCA, 0.013 E-score.
For ATTTCGGA the value was -0.0252 E-score; for ACTCCAAA, -0.199 E-score.
In the case of GTCCGACA, the binding signal turned out to be 0.00526 E-score.
Take GACAGACC: the binding signal is -0.181 E-score.
For CGAATGAC the value was 0.0709 E-score.
Turning to CTCGCTCC, the binding signal turned out to be 0.011 E-score.
For ATCCCGAT the value was 0.378 E-score; for ATGTATCA, 0.448 E-score; for ATTAACGA, 0.0502 E-score.
Turning to CAGTAATG, the binding signal was -0.00453 E-score.
The result for TCCCCACA reads -0.129 E-score; that for GTCTCTAA, -0.128 E-score.
For ACTTTATG the value was -0.0542 E-score; for AATTCCGG, -0.0499 E-score; for CTCTCTGA, 0.0106 E-score.
ACCGGGCG: the binding signal was found to be 0.00777 E-score.
The result for TGGCATAA reads 0.177 E-score; that for CATTATAG, -0.0872 E-score.
For CGCGGAGC the value was -0.176 E-score.
The result for CATTCTCG reads -0.176 E-score.
Take CCAATCCG: the binding signal stood at 0.224 E-score.
For AGGCATGC the value was -0.235 E-score.
The result for GGTGAAAC reads 0.0962 E-score.
Consider CCCCTAAG, for which the binding signal worked out at 0.0172 E-score.
For CCCAGAAG the value was -0.0619 E-score; for GCGATCAC, 0.354 E-score; for GAATGCCC, 0.00274 E-score.
Take ACCCCAGA: the binding signal turned out to be 0.189 E-score.
The result for TCGATCCA reads 0.152 E-score.
With ATGACTAA, the binding signal is -0.112 E-score.
For AGTAAAAT the value was -0.039 E-score; for GTACACTA, 0.114 E-score.
For ACCTTCAG the value was -0.0385 E-score.
With TCCACGGA, the binding signal came out at 0.0425 E-score.
For CAACCTGA the value was -0.0449 E-score; for GTGGAAGA, -0.0122 E-score; for ACATTATC, 0.165 E-score.
For GCGGCCCC the value was -0.155 E-score; for GCTGGGCA, -0.0906 E-score; for ATTTTGGG, -0.0913 E-score.
For TAGGCACA, the binding signal is -0.109 E-score.
Regarding ATACTGAC, the binding signal was 0.199 E-score.
The result for AATTCCGC reads -0.0557 E-score; that for ACCGCCTC, -0.0646 E-score; that for GAGCAGGC, -0.156 E-score.
The result for GACTCACA reads -0.289 E-score; that for GCCTCCCC, -0.148 E-score.
The result for AACGTACA reads -0.147 E-score; that for CAATGCTG, -0.073 E-score; that for CCCTTGTC, -0.0401 E-score.

For the origin of these results see publication PMC10668032.
